PubChem BioAssay AID434955 (Southern Research Specialized Biocontainment Screening …, 2010)
The other results are listed elsewhere or left out. Shown are side measurements of this screen, not its main read-out; they come without a call. The list favours compounds with an active or inconclusive main result.

Assay: beta-lactam sensitization of Mtb H37Rv, H37Rv (AID 434955);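 further: growth measured after seven days incubation then overnight dye step; 0% = bacteria only wells and 100% = bacteria with antibiotic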
Conditions: M. tuberculosis H37Rv growth with meropenem, percent inhibition; measured here: primary screen without meropenem; at 25 µM

Row | Compound | inhibition
1 | Cn1c(C(=O)c2ccccc2)nc2ccccc21 | 1.37%
2 | CCOC(=O)c1cnc(-n2nc(C)cc2C)nc1N1CC(C)OC(C)C1 (stereo unspecified) | 39.8%
3 | Cc1cc(NC(=O)CSc2nnc(Cn3c(=O)sc4ccccc43)n2-c2ccccc2C)no1 | -14.8%
4 | O=C1c2ccccc2N2C(=O)c3ccccc3C2N1O (stereo unspecified) | 7.68%
5 | CC(=O)c1ncnn1CC(=O)c1ccc(Cl)cc1Cl | 0.71%
6 | Clc1ccc(Cl)c2sc(N3CCOCC3)nc12 | 5.41%
7 | Cn1c(=O)c(=O)n(C)c2cc(S(=O)(=O)N3CCCC3C(=O)Nc3ccccc3F)ccc21 (stereo unspecified) | -4.32%
8 | CCC(C(=O)NC1C(=O)N2C(C(=O)O)=C(CSc3nnc(C)s3)CSC12)c1ccccc1 (stereo unspecified) | -15.8%
9 | COc1ccccc1N1CCN(c2ccc([N+](=O)[O-])cc2Cl)CC1 | 33.1%
10 | NC(N)=NS(=O)(=O)c1ccc(N)cc1 | 23.4%
11 | CCCCCN1CC(O)=C(c2nc(-c3ccc(Cl)cc3)cs2)C1=N | -1.04%
12 | c1ccc(COc2ccc(-c3sc(Nc4ccccc4)n[n+]3-c3ccccc3)cc2)cc1 | -0.45%
13 | Cc1ccc(NC(=O)N2CCCC(c3ccccc3)C2)cc1 (stereo unspecified) | -0.68%
14 | O=C(CS(=O)(=O)c1ccc2ccccc2c1)Nc1ccccc1Cl | -2.46%
15 | Cn1c(=O)c2c(ncn2CC(=O)N2CCN(S(=O)(=O)c3ccc(Cl)cc3)CC2)n(C)c1=O | 4.52%
16 | Cc1cc(C)c2c(n1)SCC(=O)N2CC(=O)Nc1ccccc1Cl | -4.85%
17 | Cc1ccsc1/C=c1\sc2ncnn2c1=O | 0.44%
18 | CC(C)(C)c1ccc(C(=O)Nc2nnc(SCC(=O)NCC3CCCO3)s2)cc1 (stereo unspecified) | 7.39%
19 | Cn1ccnc1CN1CCCCC1C(=O)Nc1ccc(Oc2cccnc2)cc1 (stereo unspecified) | 8.89%
20 | COc1cc(C2SCC(=O)Nc3c2c(=O)[nH]n3C2CCCCCC2)cc(OC)c1OC (stereo unspecified) | -10.7%
21 | COc1ccccc1N1CCN(C(=O)CNC(=O)Cn2cnc3sc(C)c(C)c3c2=O)CC1 | -1.94%
22 | CC(C)Cc1ccc(CN2CCCC(NC(=O)Cn3cnnn3)C2)cc1 (stereo unspecified) | 11.5%

Row | Compound | inhibition
23 | COc1ccc(/C=C2/CCCC(C(=O)C(F)(F)F)=C2O)cc1OC | 3.18%
24 | Cn1ccc(C(=O)Nc2sc3c(c2C(N)=O)CCCCC3)n1 | 11.6%
25 | O=C(CC12CC3CC(CC(C3)C1)C2)NCc1ccc(F)cc1 | 2.73%
26 | CN(C)S(=O)(=O)Nc1ccc(C(=O)O)cc1 | -3.8%
27 | O=C(CCCN1C(=O)c2cccnc2Oc2ccc(Cl)cc21)N1CCCCC1 | 3.24%
28 | CCc1ccc(NC(=S)Nc2ccc(S(=O)(=O)Nc3ncccn3)cc2)cc1 | 9.99%
29 | COc1ccccc1N1CCN(S(=O)(=O)c2ccc3c(c2)CC(C)N3C(C)=O)CC1 (stereo unspecified) | 2.7%
30 | COC(=O)c1ccc(C2NC(C(=O)O)CS2)cc1 (stereo unspecified) | -10.2%
31 | O=C(CN1C(=O)COc2ccccc2C1=O)c1ccc2c(c1)OCCO2 | 4.6%
32 | COc1ccc(CN2C(=O)c3cccnc3C2=O)cc1S(=O)(=O)N1CCOc2ccccc21 | 2.04%
33 | CCSc1nnc(NC(=O)CSc2nccn2-c2cccc(C)c2)s1 | 36.4%
34 | O=C(CCCC(=O)OCC(=O)c1ccc(Cl)cc1)NC1CCCCC1 | 30.8%
35 | O=C(c1ccc([N+](=O)[O-])o1)N(Cc1nnc(-c2ccccc2Cl)o1)C1CC1 | 100%
36 | CCCCn1c(SCC(=O)Nc2nnc(C)s2)nc2c1c(=O)n(C)c(=O)n2C | 8.37%
37 | Cc1nc(Nc2cccc(Cl)c2)c2oc3ccccc3c2n1 | 77.2%
38 | O=C(Cc1ccc(Br)cc1)Nc1ccc(S(=O)(=O)N2CCCC2)cc1 | 12.9%
39 | Cc1ccc(C(C)C)c(OCCNC(=S)Nc2cccc3ccccc23)c1 | -1.19%
40 | CC1CCN(C(=S)NC(=O)c2ccccc2)CC1 | 39.6%
41 | O=C(NC1CCN(C(=O)NCc2ccccc2)CC1)c1ccco1 | 1.68%
42 | O=C(CCCN1CCc2[nH]c3ccc(F)cc3c2C1)c1ccc(F)cc1 | -2.87%
43 | COc1ccc(C(=O)N2CCCC(Nc3ccc(F)cc3)C2)cc1F (stereo unspecified) | 6.67%
44 | CCCCCCCN(C(=O)CCl)c1ccccc1C | 20.3%

Row | Compound | inhibition
45 | Cc1ccc(C)c(N2CCN(C(=O)c3ccc(CSc4nc5ccncc5[nH]4)cc3)CC2)c1 | 8.74%
46 | O=C(OCC(=O)c1ccc[nH]1)C1=COCCO1 | 20.7%
47 | CSc1nnc(N2C(=O)C(O)=C(C(=O)c3ccco3)C2c2cccc(Cl)c2)s1 (stereo unspecified) | 4.57%
48 | CCOc1ccc(-c2nc(-c3ccccc3C)no2)cc1 | 26.5%
49 | Cc1ccc(F)cc1NC(=O)CCc1c(C)nn(-c2ccc(N3CCCCC3)nn2)c1C | 1.74%
50 | Cc1ccc(N2CCN(S(=O)(=O)c3ccc4c(c3)n(C)c(=O)c(=O)n4C)CC2C)cc1 (stereo unspecified) | 3.45%
51 | CC(=O)Nc1ccc(S(=O)(=O)N2CCN(c3cc4c(cc3[N+](=O)[O-])n(C)c(=O)n4C)CC2)cc1 | -2.09%
52 | Cc1ccc(N/N=C/c2cccnc2)cc1 | 93.6%
53 | Cc1cc(NC(=O)NC(=O)c2ccccc2F)no1 | -0.61%
54 | O=C(CSc1nnc(CNC(=O)c2ccccc2)o1)NCc1ccc(F)cc1 | 4.57%
55 | CC(=O)N1c2ccc(S(=O)(=O)N3CCCC3C(=O)Nc3cccc(F)c3)cc2CC1C (stereo unspecified) | -10.3%
56 | CN1CCN(CC(=O)N2CCn3c4c(c5cc(C6CCCCC6)ccc53)CCCC42)CC1 (stereo unspecified) | 100%
57 | COc1ccccc1NC(=O)c1oc2ccccc2c1NC(=O)C1CC1 | 1.99%
58 | CCN(C(=O)C1CCCN(c2nc(-c3ccc(OC)cc3)no2)C1)c1ccc(OC)cc1 (stereo unspecified) | -3%
59 | COc1ccc(NS(=O)(=O)c2cc(NC(=O)c3ccc(C)o3)ccc2N2CCCCC2)cc1 | 35.8%
60 | Cc1ccc(NC(=O)CSc2nnc(N)s2)cc1S(=O)(=O)N1CCCCC1 | 6.53%
61 | Cc1ccc(S(=O)(=O)N(C)C)cc1NC(=O)COC(=O)c1c(C)noc1C | 0.61%
62 | COCCNC(=O)COc1ccc(Oc2ccccc2)cc1 | -1.45%
63 | CC(=O)N1c2ccc(S(=O)(=O)N3CCCC3C(=O)NCc3ccccc3Cl)cc2CC1C (stereo unspecified) | 4.82%
64 | O=C1C=C(c2ccc(O)cc2)C[C@@H](c2ccc(Cl)cc2)C1 | 81.7%
65 | CCOc1cc(/C=N\NC(=O)c2ccc(NC(=O)C(C)(C)C)cc2)ccc1OC(=O)c1ccc(C)cc1 | 1.15%
66 | CC1CCCN(S(=O)(=O)c2ccc3c(c2)C(C)(C)C(=O)N3C)C1 (stereo unspecified) | -10.4%

Row | Compound | inhibition
67 | CCOc1ccc(-c2csc(NC(=O)CSC3=NC(=O)CN3C(C)=O)n2)c2ccccc12 | 5.07%
68 | CCOC(=O)C1CCCN(C2CC(=O)N(c3cccc(C)c3)C2=O)C1 (stereo unspecified) | 1.59%
69 | CCCc1cc(C(=O)Cc2ccccn2)c(O)cc1O | 10%
70 | O=c1c2ccccc2nnn1CSc1ccc2ccccc2n1 | -1.57%
71 | O=C(CCc1ccccc1)N/N=C\C1CC=CCC1 (stereo unspecified) | 7.03%
72 | COc1cccc(-n2c(=O)c3cc(OC)c(OC)cc3n(CC(=O)Nc3cc(C)[nH]n3)c2=O)c1 | -1.09%
73 | Cc1cc(C)n2nc(SCC#N)nc2n1 | -8.43%
74 | CCOC(=O)C1=NN(c2ccccc2)C2=NC(C)=C(C(=O)OC)C(c3cccs3)N12 (stereo unspecified) | 7.43%
75 | CC(=O)NC(=S)Nc1ccc(NC(=O)c2cccs2)cc1 | 11.5%
76 | Cc1ccc2cc(CCl)c(Cl)nc2c1 | 3.67%
77 | O=c1c(N=Nc2ccc(O)cc2)c(-c2ccccc2)[nH]n1-c1ccc([N+](=O)[O-])cc1 | 1.6%
78 | CC(C)(C)c1ccc(C(=O)NCc2nnc(SCC(=O)NC3CCCCC3)o2)cc1 | 1.88%
79 | O=C(CSc1nc2ccccc2c(=O)n1-c1ccc(F)cc1)Nc1cc(S(=O)(=O)N2CCOCC2)ccc1Cl | -8.66%
80 | Cc1cccc2sc(NC(=O)CSc3nnnn3C)nc12 | 0.43%
81 | CCCOP(=O)(c1ccc(N(C)C)cc1)C(O)c1ccc(Cl)cc1 (stereo unspecified) | 5.58%
82 | CCOc1cc2[nH]c(=S)n(Cc3ccc(C(=O)NCCOC)cc3)c(=O)c2cc1OCC | 9.7%
83 | Cc1cc(C)nc(NC(=O)CN2C(=O)c3ccccc3C2=O)n1 | -6.37%
84 | CN(C(=O)CSc1ccncc1)C1CCCN(Cc2ccccc2F)C1 (stereo unspecified) | 0.19%
85 | CC(=O)Nc1ccc(S(=O)(=O)Nc2cccc3cccnc23)cc1 | 45.2%
86 | CCCc1nc2scc(-c3ccccc3)c2c(=O)n1N | -5.6%
87 | CCOC(=O)c1c(NC(=O)CN2C(=O)NC3(CCCCCC3)C2=O)sc(C)c1-c1ccc(C)cc1 | 28%
88 | COCCCNc1nc(SCc2ccccc2)nc2sc3c(c12)CCC3 | 22.8%

Row | Compound | inhibition
89 | O=c1cc(C(F)(F)F)nc(SCc2cccc3ccccc23)[nH]1 | -8.22%
90 | O=C(c1cccc(C(=O)N2CCN(c3ccccc3)CC2)c1)N1CCN(c2ccccc2)CC1 | 2.4%
91 | CCN(CC)C(=O)C1CCCN(c2ccc([N+](=O)[O-])cc2/C=N/NC(=O)c2cccc(O)c2)C1 (stereo unspecified) | 33.6%
92 | CC(=O)c1sc(NC(=O)CCS(=O)(=O)c2ccccc2)nc1C | 2.82%
93 | O=C(Nc1cccc(Br)c1)c1ccc2snnc2c1 | -7.02%
94 | CC(Sc1cccc[n+]1[O-])C(=O)Nc1cccc(S(=O)(=O)N2CCOCC2)c1 (stereo unspecified) | 59.5%
95 | CCOc1ccc(CCNC(=O)CCc2nnc3ccc(N4CCOCC4)nn23)cc1 | -2.27%
96 | COC(=O)Nc1ccc(S(=O)(=O)N2CCC(Cc3ccccc3)CC2)cc1 | -8.89%
97 | Cc1cc(C)nc(SCC(=O)OCC(=O)Nc2nc3ccccc3s2)n1 | 8.96%
98 | COc1ccc(NC(=O)CSc2nc(N)c(NC(=O)c3ccccc3F)c(=O)[nH]2)cc1 | 2.18%
99 | Cc1ccc(S(=O)(=O)N2CCOCC2)cc1C(=O)NCC1CCCO1 (stereo unspecified) | -3.47%
100 | COc1cc(OC)cc(C(=O)Nc2ccccc2N2CCOCC2)c1 | -0.09%
101 | CCN1CCN(C(=O)c2cc3cc(Cl)ccc3[nH]2)CC1 | 8.44%
102 | COc1ccc(CCN2CC(C(=O)N3CCCCCC3)CCC2=O)cc1 (stereo unspecified) | -3.42%
103 | CCOC(=O)C1CCN(c2c(NCCCN(CC)c3ccccc3)c(=O)c2=O)CC1 | -3.6%
104 | Cn1c(=O)c2c(nc(CN3CCN(C(=O)c4ccco4)CC3)n2Cc2ccc(Cl)cc2)n(C)c1=O | -1.33%
105 | CCOC(=O)c1[nH]c(C)c(C(=O)NCc2ccc(OC)cc2)c1C | -4%
106 | Cc1ccc(Cl)cc1N1CCN(S(=O)(=O)c2c(C)[nH]c(C)c2C(=O)N2CCCC2)CC1 | 3.04%
